Measurements reported in PubChem BioAssay AID488969 (Vanderbilt High Throughput Screening Facility, 2010).
In all, about 110,000 compounds were measured (“z-score”: median about -0.1, highest 2% from about 2 on). Some of the results follow. Active and inactive are the calls of the source.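 The calls were made as follows: active = z-score in the third read window above 3 or below -3; inactive = the rest.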

Each molecule was assayed against Metabotropic glutamate receptor 8 (Rattus norvegicus) (UniProt P70579) (assay: rat mGluR8 modulators via GIRK flux, primary screen, cell-based, thallium flux, HTS (AID 488969)). Settings: HEK293 rat mGluR8, GIRK (G protein-gated inwardly rectifying potassium channel) thallium flux, FluoZin2; at 10 µM; stronger effect = higher value; submaximal glutamate (EC20) added with thallium.
Sequence of UniProt P70579 (P70579 whole entry, looked up): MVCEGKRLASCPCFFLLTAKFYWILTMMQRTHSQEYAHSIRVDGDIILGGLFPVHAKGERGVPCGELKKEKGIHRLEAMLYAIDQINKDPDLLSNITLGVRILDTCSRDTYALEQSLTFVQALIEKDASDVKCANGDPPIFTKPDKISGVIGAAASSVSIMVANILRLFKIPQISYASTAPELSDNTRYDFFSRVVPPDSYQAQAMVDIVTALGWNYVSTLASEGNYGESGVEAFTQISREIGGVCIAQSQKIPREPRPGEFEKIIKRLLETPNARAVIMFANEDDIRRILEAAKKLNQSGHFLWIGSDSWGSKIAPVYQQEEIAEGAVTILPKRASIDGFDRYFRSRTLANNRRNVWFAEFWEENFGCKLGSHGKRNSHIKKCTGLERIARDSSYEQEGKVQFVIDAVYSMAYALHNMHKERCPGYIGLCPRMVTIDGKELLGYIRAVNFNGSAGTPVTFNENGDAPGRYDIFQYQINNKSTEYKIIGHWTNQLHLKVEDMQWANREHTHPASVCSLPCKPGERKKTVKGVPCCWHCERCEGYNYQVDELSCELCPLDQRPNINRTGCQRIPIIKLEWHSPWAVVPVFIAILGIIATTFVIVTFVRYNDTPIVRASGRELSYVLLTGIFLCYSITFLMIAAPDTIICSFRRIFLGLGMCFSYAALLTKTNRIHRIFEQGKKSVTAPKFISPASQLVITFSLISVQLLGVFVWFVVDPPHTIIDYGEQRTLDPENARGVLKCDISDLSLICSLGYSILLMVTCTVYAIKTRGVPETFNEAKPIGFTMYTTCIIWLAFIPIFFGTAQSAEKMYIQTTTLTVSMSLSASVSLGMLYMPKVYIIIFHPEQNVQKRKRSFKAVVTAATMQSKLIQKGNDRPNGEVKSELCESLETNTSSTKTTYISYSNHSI

Structure (SMILES) | z-score
O=C(CN1CCN(S(=O)(=O)c2ccc(Cl)cc2)CC1)Nc1ccc(F)cc1F | -0.415
O=C(N/N=C/C=C\c1ccco1)c1cccnc1 | 0.132
Cc1ccc(C)c(OCc2nnc(NC(=O)c3ccco3)s2)c1 | -0.431
O=C(COc1ccc(Cl)cc1)Nc1c(-c2cccs2)nc2ccccn12 | -0.182
O=C(C1CCC1)N1CCc2cc(S(=O)(=O)NCc3cccnc3)ccc21 | -0.0446
Cc1ccccc1C(=O)N1CCc2ccccc2C1 | -0.19
S=c1[nH]nc(-c2cc3ccccc3o2)n1Cc1ccccc1 | 2.66
O=Cc1ccc(OC(=O)C2CC(=O)N(c3ccc(F)cc3)C2)cc1 (stereo not drawn) | -0.495
CN(C)c1nccc(Nc2ccccc2)c1C#N | 0.148
CCOC(=O)C(C)Sc1nc(-c2cccs2)ccc1C#N (stereo not drawn) | -0.643
O=C(OCc1ccccc1)C1CCCN1C(=O)c1ccccc1[N+](=O)[O-] (stereo not drawn) | -0.114
CC(C)C(NC(=O)C12CC3CC(CC(C3)C1)C2)C(=O)N/N=C/C1=C(N2CCOCC2)C(=C\c2cccc([N+](=O)[O-])c2)/CC1 (stereo not drawn) | -0.209
CC1CC2=C(C(=O)O1)C(c1ccc(Cl)cc1)Nc1ccccc1N2 (stereo not drawn) | -0.122
Cc1ccc(-n2nc3c(N4CCN(c5ccccc5)CC4)nnc(C)c3c2C)cc1 | 0.128
Brc1cc(Br)c2nc(-c3cccs3)ccc2c1 | 0.033
CCNc1nnc(-c2ccccc2OC)s1 | 0.181
CCn1c(CSc2nc3ccccc3s2)nnc1SCC(N)=O | -0.107
COc1cc(CNCCN(C)C)c(Br)cc1OCC(=O)NCc1ccccc1 | -0.409
COc1cc(OC)c(NC(=O)CCCn2c(=O)oc3ccccc32)cc1Cl | -0.0864
CC(C)Cn1c(N)c(C(=O)COC(=O)CC23CC4CC(CC(C4)C2)C3)c(=O)n(C)c1=O | -0.111
Cc1ccsc1/C=C1\SC(N2CCOCC2)=NC1=O | -0.0478
c1ccc(COc2ccc(OCCCNC3CCCC3)cc2)cc1 | 2.46
CCOC(=O)C(=CNc1cc(C)nn1-c1ccc(C)cc1)C(=O)OCC | -0.0759

Structure (SMILES) | z-score
O=C1CCCc2nn(-c3ccccc3)c(-c3ccncc3)c21 | 0.215
CC(=O)c1c(C)[nH]c(C(=O)Nc2cc(C)cc(C)c2)c1C | -0.406
O=C(C1CCCN1S(=O)(=O)c1cccc2cccnc12)N1CCn2c1nc1ccccc12 (stereo not drawn) | active: 3.63
Cc1ccc2nc(NC(=O)CSc3nc4c(c(=O)n3C)SC(C)C4)sc2c1 (stereo not drawn) | -1.21
O=C(CSc1nc2ccc(Cl)cc2[nH]1)c1ccc2c(c1)OCO2 | -0.0875
O=C1CCCC2=C1C(c1ccccc1)C1C(=O)c3ccccc3C1=N2 (stereo not drawn) | 0.0439
CCOC(=O)CSc1nc2c(c(=O)n1-c1ccc(OCC)cc1)SCC2 | -0.284
COC(=O)C1=C(C)N(C)C(=S)NC1c1ccccc1 (stereo not drawn) | -0.183
Cc1ccc(C(=O)Nc2nnc(C)s2)o1 | -0.0894
Nn1cnnc1N/N=C/c1cc(Br)cc(Br)c1O | -0.242
O=c1c2ccccc2ncn1-c1cccc(Cl)c1 | 0.000335
Cc1cc(NC(=S)N(CCCN2CCOCC2)Cc2ccco2)ccc1Cl | -1.34
COc1ccc(C(=O)NCc2c(CC(C)C)oc(C)c2C(=O)O)cc1 | -0.742
Cc1cc(C)c(S(=O)(=O)Nc2ccc3c4c(cccc24)CC3)c(C)c1 | -0.268
CN1CCN(S(=O)(=O)c2ccc(-c3ccccc3)cc2)CC1 | 0.335
Cn1c(=O)[nH]c(=O)c2c1nc(N1CCCCCC1)n2CCCSc1nnnn1-c1ccccc1 | 0.52
CCOC(=O)N1CCN(C(=O)c2ccc3nc4cc(Cl)ccc4c(=O)n3c2)CC1 | 0.455
FC(F)(F)c1cc(C(F)(F)F)c2ccc(N3CCN(c4ncccn4)CC3)nc2n1 | -1.01
CC1CCC(C(=O)NC(C(=O)N2CCN(c3ccccn3)CC2)C(C)C)CC1 (stereo not drawn) | 0.727
O=C(NCCO)c1cc2ccccc2cc1O | 0.0268
O=C(CCS(=O)(=O)c1cccs1)Nc1ccc(C(=O)NCc2cccs2)cc1 | -1
CC(=O)Nc1ccc(S(=O)(=O)Nc2ccc(N3CCOCC3)cc2)cc1 | -0.0547
Clc1ccc(OCc2nn3c(-c4ccncc4)nnc3s2)cc1 | 0.253

Structure (SMILES) | z-score
Cc1ccc(N(C(=O)C2CCC(=O)N2)C2(C(=O)NC3CCCCC3)CCCCC2)cc1 (stereo not drawn) | 0.599
CC1(c2ccccc2)CC2CC(c3ccccc3)N1O2 (stereo not drawn) | -0.206
CCCOc1cc(C)nc(-c2ccccc2O)n1 | -0.181
O=C(CCSc1ccc(Cl)cc1)NC1CCCCC1 | -0.109
Cc1cc(=O)n2c3c(sc2n1)C(=O)N(Cc1ccccc1)C3=O | -0.193
Cc1cc(C)cc(-n2c(C)cc(C(=S)N3CCOCC3)c2C)c1 | 0.00785
O=S(=O)(N1CCCCC1)n1nnc2ccccc21 | 0.024
Cc1ccc(C)c(OCCCCn2cnc3ccccc3c2=O)c1 | -0.208
CC(=O)c1cnc(Nc2nc(C)c3ccc(C)cc3n2)nc1C | -0.43
Cc1cc(NC(=O)C2CCCN(S(=O)(=O)c3c(C)noc3C)C2)no1 (stereo not drawn) | 0.708
Cc1cc(C)n2nc(SCC(=O)Nc3c(C)n(C)n(-c4ccccc4)c3=O)nc2n1 | -0.229
COc1ccc(-c2cc(C)nc3nc(N)nn23)cc1 | -0.0092
Cc1cc(Oc2ccccc2)nc(SCC(=O)Nc2ccc(Cl)c(Cl)c2)n1 | 0.266
COc1ccccc1CNC(=S)NC1CCCC1 | -0.0815
CCOC(=O)N1CCN(CC(=O)Nc2ccc([N+](=O)[O-])cc2C(=O)Nc2ccccc2F)CC1 | -0.485
CCOC(=O)c1c(NC(=O)CSc2nnc(C)c(=O)[nH]2)sc2c1CCCC2 | -0.522
CCn1c(C)c(C(C)=O)c(N2CCN(c3ccc(F)cc3)CC2)nc1=S | -0.236
CC(=O)Nc1cc2ccc(OC(C)=O)cc2oc1=O | -0.336
CCCCSC1(SCCCC)N=C(N)C2(C#N)C(c3ccccc3)NC(C)=C(C)C12C#N (stereo not drawn) | -0.0616
O=C(/C=C/c1ccc(Br)cc1)NC(=S)Nc1ccc(S(=O)(=O)Nc2nccs2)cc1 | -0.399
O=C(N/N=C/c1cccc([N+](=O)[O-])c1)c1ccc(CN2CCOCC2)cc1 | 0.56
Cc1ccc(-n2nc(C)c3c(C)c(CCC(=O)NCc4ccccc4)c(C)nc32)cc1 | 0.0582
CCOC(=O)C1CCN(C(=O)COc2cccc(C)c2)CC1 | -0.0116

Structure (SMILES) | z-score
O=C1c2cccc3cccc(c23)C(=O)N1c1nccs1 | -0.239
CCOC(=O)c1c(N)sc2c(NC(C)=O)cccc12 | 0.677
COc1cccc(Nc2nc3ccccc3n3cnnc23)c1 | -0.251
COc1ccc2oc(-c3ccc(NC(=O)c4ccc(N5CCOCC5)c([N+](=O)[O-])c4)cc3)nc2c1 | -0.0334
CC1Cc2ccccc2N1C(=O)c1ccc(N2CCCC2)c([N+](=O)[O-])c1 (stereo not drawn) | -0.202
N#Cc1cc2c(nc1SCc1ccccc1)CCC2 | 0.359
CC(C)Cn1c(-c2ccccc2)nc(=S)c2c1CCCC2 | 0.28
Cc1cnn(-c2cc(N/N=C/c3ccccc3)ncn2)c1 | -0.0535
Cc1cccc(Nc2nnc(SCC(=O)NC3CCCc4ccccc43)s2)c1C (stereo not drawn) | -0.282
C/C(=N\NC(=O)c1cc(-c2cccc([N+](=O)[O-])c2)n[nH]1)c1ccccc1O | -0.0279
CCC(=O)NC(=S)Nc1ccc(S(=O)(=O)N2CCN(C)CC2)cc1 | -0.0523
COc1ccc(-c2cc(C(=O)OC(C)C(=O)Nc3c(C)n(C)n(-c4ccccc4)c3=O)c3ccccc3n2)cc1 (stereo not drawn) | -0.604
CCN=C(NCC)SC1CC(=O)N(c2ccc(OC)cc2)C1=O (stereo not drawn) | -0.428
Cn1c(=O)c2ncn(CC(=O)Nc3ccc(N4CCOCC4)cc3)c2n(C)c1=O | 0.0617
O=C(CSc1ncnc2c1sc1ccccc12)Nc1ccc(Br)cc1 | -0.0878
Cc1cccc(C)c1OCC(O)CNS(=O)(=O)c1ccccc1C(=O)N1CCOCC1 (stereo not drawn) | -0.302
O=C(CC1CCCCC1)NCc1ccccn1 | -0.377
O=C(NNC(=O)c1cccs1)Nc1cccc(Cl)c1 | 1.31
Cc1cc(=O)oc2cc(OC(C)C(=O)Nc3ccc(N4CCOCC4)cc3)ccc12 (stereo not drawn) | 0.0147
CCCOc1cc(C)c(S(=O)(=O)N2CCN(C)CC2)cc1C | 0.0948
Cc1nc2cc(NC(=O)NCc3ccccc3)ccc2o1 | 0.0271
CCOCCCNS(=O)(=O)c1ccc2c(c1)OCCO2 | -0.138
Cc1cc(C(C)(C)C)cc(S(=O)(=O)NCCO)c1C | -0.2

Structure (SMILES) | z-score
CCC(C)NC(=O)c1ccc(CSCc2cccc(F)c2)o1 (stereo not drawn) | -0.863
CCNC(=O)CCc1nc(-c2ccc(C(C)(C)C)cc2)no1 | 0.111
O=C(CSc1nnc(CNc2ccc(F)cc2)n1-c1ccccc1)N1CCOCC1 | -0.00832
CC(C)CCNC(=O)NC(=O)COc1ncnc2sccc12 | -0.533
Cc1ccccc1N/C(SCc1cccc(Br)c1)=C(/C#N)C(N)=O | -0.127
O=C1NC2(CCCCC2)NN1c1ccccc1 | -0.125
Cc1ccc(S(=O)(=O)CNC(=S)c2cccc(Cl)c2)cc1 | 0.543
CCOC(=O)c1cnc(SCc2ccc(C(C)(C)C)cc2)nc1N | 0.064
O=C(NCCCc1ccccc1)Nc1cccc(Cl)c1 | 2.01
COc1ccc(S(=O)(=O)N2CCC(C(=O)N3CCCCC3)CC2)cc1Cl | 0.233
Cc1ccc(S(=O)(=O)Nn2c(C)ccc2C)cc1 | 0.267
CCNC(=O)C(=O)NCC1OCCCN1S(=O)(=O)c1cccs1 (stereo not drawn) | -0.0892
Cc1cccc(NC(=S)NCc2ccc3c(c2)OCO3)c1 | -0.0322
CCCC(=O)Nc1nnc(CCN2CCCCC2)s1 | -0.221
COc1ccccc1NC(=O)CN(C)S(=O)(=O)c1ccc2c(c1)CCC(=O)N2 | -0.111
Cc1nc2ccccc2c2c1C(=O)N(C1CCCCCCC1)C2=O | -0.105
O=C(NC1=NCCS1)c1cc(-c2cccc(Br)c2)nc2ccccc12 | -0.204
Cc1ccc(N=Cc2sc(O)c3ccccc23)c(C)c1 | -0.00761
O=c1c2[nH]c3ccccc3c2ncn1CCCn1ccnc1 | 0.367
Cc1c(C)n(C(=O)CN2CCN(c3ccccc3)CC2)c2ccccc12 | 0.000165
O=C1N=C2SCCN2/C1=C\c1ccccc1Cl | -0.167
